Values joined by “and” are separate entries in the source; they are usually repeats but may differ in a detail not shown here. Equal entries are not always repeated. The inconclusive results got no clear call from the source; some entries with a clear call stand among them for comparison. Potencies of inconclusive entries are doubtful fits and often do not repeat. Where a structure was tested more than once in an assay, its records may differ in their call. Active and inactive are the calls of the source. Calls follow the shape of the dose curve; as a rule, active = well fitted curve in the direction sought with a large enough effect; inconclusive = small, poorly fitted or top-dose-only effect, or another doubt; inactive = no such curve, though single readings can be large; an effect the other way counts as inactive or inconclusive.
What was measured:
[1] = Viability qHTS for spleen associated tyrosine kinase inhibitor (SYKi) naive MV4-11 cells (AID 1963823); settings: MV4-11 AML viability, CellTiter-Glo luminescence, 72 h; viability (% of control): at 45 µM (top of the series); also: nearly all actives have a fitted effect of over 40% in size
Procedure, shortened: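 In this viability screen, compounds acted on SYK inhibitor naive MV4-11 cells for three days (72 hr, 37 C). Remaining viable cells were measured by CellTiter-Glo luminescence following a 10 min room-temperature development.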

[2] = Viability qHTS for spleen associated tyrosine kinase inhibitor (SYKi) drug resistant MV4-11 cells (AID 1963824); also: nearly all actives have a fitted effect of over 35% in size
Procedure, shortened: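 SYK inhibitor-resistant MV4-11 AML cells, 500 per well, added to predispensed compounds and incubated 72 hr at 37 C, 5% CO2. Viability measured by CellTiter-Glo luminescence after 10 min at room temperature.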

[3] = Quantitative highthroughput screen to assess conditional lethalithy of P12 Ichikawa cells grown in Human Plasma-Like Medium with dialyzed fetal bovine serum (HPLM+ds) (AID 1963879); settings: Potency: viability; also: nearly all actives have a fitted effect of over 35% in size
Procedure, shortened: (§1)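 Each medium arm—HPLM with 10% dialyzed FBS, or RPMI1640 with 5 mM glucose and 10% untreated or dialyzed FBS—was screened against an 11-point, 3-fold compound titration for 48 h at 37 °C, with CellTiter-Glo luminescence as endpoint.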

[4] = Quantitative highthroughput screen to assess conditional lethalithy of SEM cells grown in Human Plasma-Like Medium with dialyzed fetal bovine serum (HPLM+ds) (AID 1963882); also: nearly all actives have a fitted effect of over 35% in size
Procedure, shortened: as §1

[5] = Quantitative highthroughput screen to assess conditional lethalithy of SEM cells grown in RPMI1640 with unreated serum (RPMI+s) (AID 1963883); settings: SEM B-ALL cells, CellTiter-Glo viability, 48 h; viability: at 45.8 µM (top of the series); also: nearly all actives have a fitted effect of over 35% in size;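 as to Viability: 100% = DMSO wells and 0% = empty wells without cells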
Procedure, shortened: as §1

[6] = Quantitative highthroughput screen to assess conditional lethalithy of SEM cells grown in RPMI1640 with dialyzed fetal bovine serum (RPMI+ds) (AID 1963884); settings: SEM B-ALL cells, RPMI+dialyzed FBS, CellTiter-Glo viability, 48 h; viability: at 45.8 µM (top of the series); also: nearly all actives have a fitted effect of over 35% in size;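 as to Viability: 100% = DMSO control wells and 0% = empty wells without cells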
Procedure, shortened: as §1

[7] = Cellular viability qHTS for adrenocortical cancer (ACC) cell line SW-13 (AID 1963989); settings: SW-13 ACC cells viability, CellTiter-Glo, 48 h; activity (max response): stronger effect = lower value; also: nearly all actives have a fitted effect of over 65% in size;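 as to activity (max response): cells grown in serum-free medium with ITS supplement; % is scaled to controls: 0 for no effect and ±100 for the full control effect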
Procedure, shortened: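 SW-13 cells in ITS-supplemented serum-free DMEM were plated overnight, then exposed for 48 h at 37C to compound titrations (up to 46 uM final). Viability was read by CellTiter-Glo luminescence; four-parameter logistic fits gave IC50 and efficacy.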

[8] = Cellular viability qHTS for adrenocortical cancer (ACC) cell line NCI-H295R (AID 1963990); settings: CellTiter-Glo ATP luminescence, 48 h; activity change, negative = viability loss: at 46.1 µM (top of the series); also: nearly all actives have a fitted effect of over 60% in size
Procedure, shortened: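 Luminescent ATP read-out (CellTiter-Glo, 20 min RT) after 48 h drug exposure of NCI-H295R cells; a titration up to 46 uM final. Data normalized to doxorubicin (100% inhibition) and DMSO (0%); 4-parameter fit gives IC50, max response.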

[9] = Quantitative highthroughput screen to assess conditional lethalithy of P12 Ichikawa cells grown in RPMI1640 with dialyzed fetal bovine serum (RPMI+ds) (AID 1963880); settings: Potency: P12-Ichikawa viability; also: nearly all actives have a fitted effect of over 35% in size;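 as to Viability: 100% = DMSO wells and 0% = empty wells on each plate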
Procedure, shortened: as §1

[10] = Quantitative highthroughput screen to assess conditional lethalithy of P12 Ichikawa cells grown in RPMI1640 with untreated serum (RPMI+s) (AID 1963881); settings: Potency: viability; also: nearly all actives have a fitted effect of over 35% in size;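 as to Viability: 100% = DMSO wells and 0% = empty wells without cells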
Procedure, shortened: as §1
Potency is read from the fitted curve at half-maximal effect; tags tell the direction and shape of the fitted curve.

Compound	Potency [1]	Potency [2]	Potency [3]	Potency [4]	Potency [5]	Potency [6]	Potency [7]	Potency [8]	Potency [9]	Potency [10]	activity (max response) [7]
Cc1ccc(-c2cc(C(F)(F)F)nn2-c2ccc(S(N)(=O)=O)cc2)cc1	inconclusive: 29.9 µM [cytotoxic, single point] and inconclusive: 7.31 µM [cytotoxic, partial curve]	inconclusive: 16.8 µM [cytotoxic, partial curve] and inconclusive: 14.8 µM [cytotoxic, partial curve]	inconclusive: 0.001 µM	inactive	inactive	inactive	active: 23.1 µM	inconclusive: 29.1 µM [cytotoxic, single point]	–	–	–
O=C(O)[C@H](Cc1c[nH]c2ccccc12)N1C(=O)c2ccccc2C1=O	inconclusive: 8.33 µM [cytotoxic, full curve]	inconclusive: 11.8 µM [cytotoxic, partial curve, poor fit]	–	–	inconclusive: 30.3 µM [cytotoxic, partial curve, poor fit]	inconclusive: 34 µM [cytotoxic, partial curve, poor fit]	–	–	inactive	inactive	–
O=NN(CCCl)C(=O)NC1CCCCC1	inactive	inactive	inactive	inactive	inactive	inconclusive: 37.2 µM [cytotoxic, single point]	–	–	–	–	–
O=c1c(O)c(-c2ccc(O)cc2)oc2cc(O)cc(O)c12	inconclusive: 11.8 µM [cytotoxic, partial curve]	inconclusive: 14.8 µM [cytotoxic, partial curve]	–	–	inconclusive: 29.6 µM [cytotoxic, single point]	inconclusive: 37.2 µM [cytotoxic, single point]	–	–	–	inconclusive: 2.64 µM [rising, partial curve, poor fit]	–
Clc1cccc(-c2nnnn2Cc2cccnc2)c1Cl	inactive	inactive	–	inconclusive: 1.32 µM [cytotoxic, full curve]	inconclusive: 1.05 µM [cytotoxic, full curve]	inconclusive: 1.32 µM [cytotoxic, full curve]	–	–	inconclusive: 1.18 µM [cytotoxic, full curve]	active: 1.32 µM	–
N[C@H](CSC(c1ccccc1)(c1ccccc1)c1ccccc1)C(=O)O	inconclusive: 16.6 µM [cytotoxic, partial curve, poor fit]	active: 14.8 µM	–	active: 16.6 µM	inconclusive: 10.5 µM [cytotoxic, partial curve]	–	–	–	–	inconclusive: 0.148 µM [rising, partial curve, poor fit]	inactive: -17.5%
OC1CCC(Nc2ncc3nc(Nc4c(F)cc(F)cc4F)n([C@@H]4CCOC4)c3n2)CC1 (stereo partly specified)	inconclusive: 20.9 µM [cytotoxic, partial curve]	inconclusive: 20.9 µM [cytotoxic, partial curve]	inactive	–	inconclusive: 9.35 µM [cytotoxic, single point]	–	inconclusive: 25.1 µM [cytotoxic, single point]	–	–	–	–
NC1CCC(Nc2nc(Nc3ccc(C(=O)N4CCCCC4)cc3)c3ncn(-c4cccc(F)c4)c3n2)CC1 (stereo unspecified)	inconclusive: 0.0092 µM [cytotoxic, full curve]	inconclusive: 0.0092 µM [cytotoxic, full curve]	–	–	–	inactive	–	–	inactive	inactive	–
COc1nc(N)nc2c1ncn2[C@@H]1O[C@H](CO)[C@@H](O)[C@@H]1O	inactive	inactive	–	–	–	inactive	–	–	–	inactive	–
O=NN(CCCl)C(=O)NCCCl	inconclusive: 6.61 µM [cytotoxic, full curve, poor fit]	inconclusive: 13.2 µM [cytotoxic, partial curve]	–	–	inconclusive: 0.0026 µM [rising, full curve]	–	–	–	inactive	–	–
O=C1CCc2ccc(OCCCCN3CCN(c4cccc(Cl)c4Cl)CC3)cc2N1	inconclusive: 7.5 µM [cytotoxic, partial curve] and active: 10.5 µM	inconclusive: 4.73 µM [cytotoxic, full curve]	–	–	–	–	inconclusive: 3.26 µM [cytotoxic, full curve] and inconclusive: 5.62 µM [cytotoxic, full curve]	inconclusive: 35.5 µM [cytotoxic, single point]	inactive	–	–

— PubChem BioAssay (NCATS)
